Measurements from patent publication US20190359732A1 (Memorial Sloan Kettering, published 2019).

Biological target: T1, CD3 on human T cells (human, UniProt P07766; P09693; P04234)
T1 construct: also called CD3+ T cells
Assay: FACS on CD3+ T cells; reference huOKT3

B1: HER2-BsAb (HER2/CD3 bispecific binding molecule, IgG-scFv format) (bispecific antibody)
heavy: [about 450 residues with a human IgG1 Fc left out here]
light: [about 200 residues left out here]TSGGGGSGGGGSGGGGSQVQLVQSGGGVVQPGRSLRLSCKASGYTFTRYTMHWVRQAPGKGLEWIGYINPSRGYTNYNQKFKDRFTISRDNSKNTAFLQMDSLRPEDTGVYFCARYYDDHYCLDYWGQGTPVTVSSGGGGSGGGGSGGGGSDIQMTQSPSSLSASVGDRVTITCSASSSVSYMNWYQQTPGKAPKRWIYDTSKLASGVPSRFSGSGSGTDYTFTISSLQPEDIATYYCQQWSSNPFTFGQGTKLQITR
notes: also called HER2/CD3 bispecific antibody
B1 was tested, and the “fold less binding than huOKT3” value was > 20 fold.
